From patent US7097990B2, “Method of screening cell death inhibitor” (Astellas Pharma Inc., priority 2001, dated 2006)
Read-outs that look alike come from different tables or passages of the source.

Assays:
human LTRPC2 protein [1] = type: cell-based; conditions: H2O2 0.06%
Protocol: In this case, the aforementioned operation was carried out in accordance with the protocol attached to the aforementioned reagent for transfection and the known method (reference 1).
Activation of LTRPC2 in the thus obtained transformed cells (1.6×10^5 cells) was measured using a method measuring efflux of Rb^+ ion. The method was carried out in the same manner as in Example 6. In this case, however, H2O2 (final concentration=0.06%) was used as the PARP activator, and cells in which the LTRPC2 protein alone obtained in Example 5 was expressed were used as the control.

human LTRPC2 protein [2] = conditions: for 86Rb+ residual activity: DPQ 100 μmol/liter, 3-aminobenzamide 1 mmol/liter, nicotinamide 1 mmol/liter, versus control without activator; for IC50: read-out: IC50 value of the human LTRPC2 protein inhibition, method of Example 7, varied amounts of the inhibitors
[3] = tested on: MIN6B cell expressing human LTRPC2 protein; test: MTT Assay: cell death by streptozotocin stimulation in MIN6B cells expressing human LTRPC2 protein; type: cell-based; conditions: streptozotocin 1 mM, overnight
[4] = in the presence of MNNG 1 mmol/liter

Molecule | residual activity of 86Rb+ in comparison with control cells not expressing the mutant (human LTRPC2 protein [1]) | 86Rb+ residual activity (human LTRPC2 protein [2]; in the presence of H2O2 0.06%) [%] | 86Rb+ residual activity (human LTRPC2 protein [2]; [4]) [%] | IC50 (human LTRPC2 protein [2]) [µM] | absorbance in LTRPC2-expressing cells in comparison with vector-alone cells [3] [%]
PARP-1 dominant negative mutant: human PARP-1 DNA binding region (positions 1 to 374), amino acid sequence SEQ ID NO:20, co-expressed in cells | significantly increased | – | – | – | –
NC(=O)c1cccc(N)c1 [3-aminobenzamide] | – | 91.9 | 96.2 | 117 | –
NC(=O)c1cccnc1 [nicotinamide] | – | 57.8 | 95.9 | 541 | –
O=C1NCCc2c(OCCCCN3CCCCC3)cccc21 [DPQ, 3,4-dihydro-5-[4-(1-piperidinyl)butoxy]-1(2H)-isoquinolinone] | – | 93.4 | 95.5 | 0.2 | –
CN(N=O)C(=O)N[C@H]1C(O)O[C@H](CO)[C@@H](O)[C@@H]1O (mixture of isomers) [streptozotocin] | – | – | – | – | 93
